Laboratory results reported in PubChem BioAssay AID624472 (The Scripps Research Institute Molecular Screening Center, 2012).
A number of entries come with more than one value. The other results are left out here. There may be further records. The records of an entry repeat one measurement (runs, samples, wells, individuals or studies). Brackets tell where a record comes from. Letters count within one entry.

Target: Diacylglycerol lipase-beta (Mus musculus) (UniProt Q91WC9)
Assay: ABHD6 inhibition in mouse proteome, late-stage follow-up, selectivity assay for DAGLb inhibitor project, biochemical, gel-based competitive ABPP, fluorescence, enantiomers (AID 624472)
Conditions: at 10 µM (top of the series)

Sequence of UniProt Q91WC9 (Q91WC9 whole entry, looked up): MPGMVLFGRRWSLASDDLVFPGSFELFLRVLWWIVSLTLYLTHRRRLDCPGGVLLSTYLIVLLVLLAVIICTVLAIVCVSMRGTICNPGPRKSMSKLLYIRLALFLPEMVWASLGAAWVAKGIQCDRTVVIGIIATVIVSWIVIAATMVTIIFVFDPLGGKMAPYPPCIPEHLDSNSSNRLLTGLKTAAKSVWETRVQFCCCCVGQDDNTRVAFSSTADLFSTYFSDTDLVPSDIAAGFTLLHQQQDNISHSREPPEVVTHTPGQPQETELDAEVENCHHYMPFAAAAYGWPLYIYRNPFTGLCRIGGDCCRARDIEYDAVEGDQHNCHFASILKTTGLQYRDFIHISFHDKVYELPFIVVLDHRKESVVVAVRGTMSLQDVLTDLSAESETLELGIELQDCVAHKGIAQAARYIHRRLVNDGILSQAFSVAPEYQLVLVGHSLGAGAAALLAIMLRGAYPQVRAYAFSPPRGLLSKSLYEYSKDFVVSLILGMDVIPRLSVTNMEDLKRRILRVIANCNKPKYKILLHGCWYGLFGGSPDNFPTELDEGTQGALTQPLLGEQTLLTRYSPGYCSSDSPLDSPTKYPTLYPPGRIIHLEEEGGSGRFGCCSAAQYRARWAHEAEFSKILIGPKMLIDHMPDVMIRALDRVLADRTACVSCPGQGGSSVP

Compound: O=C(N1CCCCC1Cc1ccccc1)n1cc(-c2ccc(Br)cc2)nn1 (stereo unspecified)
- inhibition: 100% [sample A] and inactive: 50% [sample B] and 100% [sample C]
